# Results: PubChem BioAssay AID686979 (National Center for Advancing Translational Sciences (NCATS), 2013)
# Where “and” joins values, the source holds several entries; their conditions need not be identical. Equal values may be shown once. The campaign covered roughly 420,000 compounds. About 50,000 (12%) were called active. The shares of active, inactive and inconclusive entries below differ from those in the screen. Calls come from the whole dose curve; as a rule, active = well fitted inhibition curve with a large enough effect; inconclusive = small, poorly fitted or top-dose-only effect; inactive = flat fitted curve, though single readings scatter. No potency is given beside an inconclusive call; the fits are too rough. Some structures have more than one record in an assay (separate samples or runs), and their calls can disagree.
# Assay: qHTS for Inhibitors of human tyrosyl-DNA phosphodiesterase 1 (TDP1): qHTS in cells in presence of CPT; note: nearly all actives have a fitted effect of over 55% in size
# Details: chicken DT40 Tdp1-/-;hTDP1 cells + 20 nM CPT, ATP luminescence, 48 h; activity change, negative = growth inhibition: at 46.2 µM (top of the series)
# In short: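 Chicken DT40 Tdp1-/- cells complemented with human TDP1, 400 cells/well, exposed to compounds plus 20 nM camptothecin for at least 48 h at 37 C; viability read as ATP content by CellTiter-Glo luminescence.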
# % is set by controls: 0 for no effect and ±100 for the full control effect; potency is the fitted concentration of half-maximal effect; tags give direction and shape of the fitted curve.
Structure (SMILES),Potency,"activity change, negative = growth inhibition"
COc1ccccc1C(=O)N1CCC(c2c[nH]c3ccccc23)(c2c[nH]c3ccccc23)CC1,"inconclusive [inhibitor, single point]",
COc1ccc2c3n([n+]([O-])c2c1)CCN=C3c1cc(Cl)c(N)c(Cl)c1,"inconclusive [inhibitor, single point]",
COc1ccccc1NS(=O)(=O)c1ccc2oc(SC)nc2c1,"inconclusive [inhibitor, single point]",
CCC(=O)N1CCc2cc(S(=O)(=O)NC(Cc3ccccc3)C(=O)Nc3ccc(Cl)cc3)ccc21 (configuration not stated),"inconclusive [inhibitor, single point]",
Cn1nnnc1SCC1=C(C(=O)O)N2C(=O)[C@@H](NC(=O)[C@H](O)c3ccccc3)[C@H]2SC1,inactive,
CCOC(=O)c1sc(N=NC2=C(O)CC(C)(C)CC2=O)c(C(=O)OCC)c1C,"inconclusive [inhibitor, partial curve]",
CCOc1ccccc1NC(=O)Cn1c(=O)n(Cc2ccco2)c(=O)c2cccnc21,"inconclusive [inhibitor, partial curve, poor fit]",
COC(=O)CCC(=O)OC1(C)C(=O)C2=CN(CC3CC3)C(c3ccc(OC)cc3)=CC2=C(Br)C1=O (configuration not stated),"inconclusive [inhibitor, single point]",
COCCN(C(=O)COC(=O)c1c(NC(C)=O)sc(C)c1C)c1c(N)n(Cc2ccccc2)c(=O)[nH]c1=O,"inconclusive [inhibitor, partial curve]",
Cc1cccc(C(=O)OCC(=O)NC23CC4CC(CC(C4)C2)C3)c1O,active: 9.2 µM,
O=C(Nn1nnnc1Nc1ccccc1)C12CC3CC(CC(C3)C1)C2,"inconclusive [inhibitor, single point]",
COc1ccc(CN2CCN(CCCc3ccccc3)C(CCO)C2)c(OC)c1 (configuration not stated),"inconclusive [inhibitor, single point]",
CCOc1ccc(S(=O)(=O)Nc2ccc(C(=O)NCCCN3CCOCC3)cc2)cc1,,inactive: -5.53%
COCCCNC(=S)N1CCN(c2nc(C)nc3sc4c(c23)CCCC4)CC1,active: 16.4 µM,
Cc1cc(C)c2c(CN3CCN(Cc4ccccc4)CC3)cc(=O)oc2c1C,"inconclusive [inhibitor, single point]",
O=c1cc(CN2CCN(c3ccccc3)CC2)c2c(ccc3ccccc32)o1,"inconclusive [inhibitor, single point]",
COc1ccc(-n2c(SCC(=O)Nc3ccccc3)nnc2-c2ccc(NS(=O)(=O)c3ccc(C)cc3)cc2)cc1,"inconclusive [inhibitor, single point]",
CCc1ccccc1NC(=O)C1=CC(c2ccc3c(c2)OCO3)=NS(=O)(=O)N1C,"inconclusive [inhibitor, single point]",
Oc1ccc(/C=N/Nc2nc(-c3cccnc3)nc3ccccc23)c(O)c1,active: 23.1 µM,
CC(NC(=O)COc1ccc([N+](=O)[O-])cc1)c1ccccc1 (configuration not stated),"inconclusive [inhibitor, single point]",
Cc1nn(C)c(C)c1CCC(=O)N1CCCC(Nc2ccc(C(C)C)cc2)C1 (configuration not stated),,inactive: -11%
Cc1c(Cl)cccc1N1C(=O)CC(NNC(=O)c2ccc3c(c2)OCO3)C1=O (configuration not stated),,inactive: -20.4%
O=C(CSc1nnc(Cn2c(=O)sc3ccccc32)n1-c1ccccc1)Nc1nccs1,"inconclusive [inhibitor, single point]",

Structure (SMILES),Potency,"activity change, negative = growth inhibition"
Cc1ccc(C)c2[nH]c(=O)c(C(c3nnnn3C3CCCC3)N3CCOCC3)cc12 (configuration not stated),,inactive: 2.3%
Cc1nc(Nc2ccc3c(c2)OCCO3)c2nnn(Cc3ccccc3Cl)c2n1,"inconclusive [inhibitor, single point]",
Cc1ccc(N(Cc2ccccc2)C(=O)c2cc(S(=O)(=O)N3CCOCC3)ccc2F)cc1,active: 18.4 µM,
CC(C(O)c1cc(=O)c(OCc2ccccc2)co1)[N+](=O)[O-] (configuration not stated),"inconclusive [inhibitor, single point]",
CCc1ccc(S(=O)(=O)Nc2c(C)nn(C)c2C)cc1,active: 11.2 µM,
CCOC(=O)c1ccc(NC(=O)CSc2nc3cccnc3n2C)cc1,"inconclusive [inhibitor, single point]",
CC(C)c1ccc(CN2CCC(Oc3ccc(C(=O)N4CCCC4)cc3)CC2)cc1,"inconclusive [inhibitor, single point]",
CCN(CC(=O)Nc1ccccc1C(F)(F)F)C(=O)c1ccccc1Sc1ccccc1C#N,"inconclusive [inhibitor, single point]",
CN(C)c1cccc(NC(=O)C2(C)Cc3c(-c4cccnc4)ccnc3O2)c1 (configuration not stated),,inactive: -23.9%
O=C(C1COc2cc(S(=O)(=O)Nc3ccc(Cl)cc3)ccc2O1)N1CCCC1 (configuration not stated),"inconclusive [inhibitor, single point]",
COc1ccc(C(O)c2ncc(-c3ccccc3Cl)[nH]2)cc1 (configuration not stated),,inactive: -1.78%
COc1ccc(-c2nnc(SCC(=O)Nc3sc4c(c3C#N)CCCC4)n2-c2ccccc2)cc1,"inconclusive [inhibitor, single point]",
CC(NC(=O)CCC(=O)NC(C)C1COc2ccccc2O1)C1COc2ccccc2O1 (configuration not stated),"inconclusive [inhibitor, single point]",
C=C[C@]12CC[C@H](OC(C)=O)CC1=CCC1C2CC[C@@]2(C)C1CCC21OCCO1 (some centres not stated),"inconclusive [inhibitor, single point]",
COc1ccc(C(=O)c2cn(Cc3ccc(F)cc3)c3c(F)cc(F)cc3c2=O)cc1,"inconclusive [inhibitor, single point]",
CCC(c1nnnn1Cc1ccc(F)cc1)N(CCCO)Cc1cc2cc3c(cc2[nH]c1=O)OCO3 (configuration not stated),"inconclusive [inhibitor, partial curve]",
Fc1ccc(-c2nnc(CN3CCN(c4ccccn4)CC3)o2)cc1,,inactive: -3.67%
COC(=O)/C=C1/SC(=NC(=O)c2cccc([N+](=O)[O-])c2)NC1=O,"inconclusive [inhibitor, single point]",
CCc1sc(C(=O)Nc2ccc3nc(C)sc3c2)cc1C,"inconclusive [inhibitor, partial curve, poor fit]",
O=C(N/N=C\c1ccc(Cl)cc1)c1sccc1-n1cccc1,,inactive: -27%
Cc1ccccc1NC(=S)N(C)Cc1cn(C)c2ccccc12,"inconclusive [inhibitor, single point]",
COc1ccc(NC(=S)NC(C)Cc2cccs2)cc1 (configuration not stated),,inactive: -16.8%
COc1ccc(-c2csc3ncnc(N4CCN(CCO)CC4)c23)cc1,,inactive: -23.4%

Structure (SMILES),Potency,"activity change, negative = growth inhibition"
CCCCn1nnnc1C1(C)CCC(=O)N1C1CC1 (configuration not stated),,inactive: -8.69%
CCn1c(C2CC(=O)N(c3ccc(C)c(C)c3)C2)nc2ccccc21 (configuration not stated),"inconclusive [inhibitor, single point]",
CN1CCN(CCCNC(=O)c2ccc3c(Cl)c4c(nc3c2)CCCC4)CC1,"inconclusive [inhibitor, single point]",
CCc1ccc(Nc2n[n+](-c3ccccc3)c(-c3cccc(C)c3)s2)cc1,active: 7.31 µM,
Cc1sc(NC(=S)NC(=O)CCc2ccccc2)c(C(N)=O)c1C,active: 0.206 µM,
Clc1ccc2nc(-c3cccc(Br)c3)c(Cc3ccsc3)n2c1,,inactive: -0.162%
Cc1ccccc1NC(=O)c1cc(N)ccc1N1CCCCC1,"inconclusive [inhibitor, partial curve, poor fit]",
COc1ccc(C(C(=O)NC2CCCCC2)n2c(=O)c(-c3ccco3)nc3ccccc32)cc1 (configuration not stated),"inconclusive [inhibitor, single point]",
Cc1ccc(/C=N\NC(=O)c2cc([N+](=O)[O-])cc([N+](=O)[O-])c2)o1,"inconclusive [inhibitor, partial curve]",
CCSC(=O)N(CC)CC(=O)Nc1c(CC)cccc1CC,"inconclusive [inhibitor, partial curve, poor fit]",
COc1cc(C2C(C(=O)Nc3ccccc3)=C(C)Nc3nc(SCC(=O)c4ccc(C)cc4)nn32)ccc1O (configuration not stated),,inactive: 0.272%
COc1ccc(NC(=O)c2sc(=O)n(Cc3ccc4ccccc4c3)c2C)cc1OC,"inconclusive [inhibitor, single point]",
O=C1OC(COc2ccc(Br)cc2)CN1c1ccccc1 (configuration not stated),,inactive: 15.3%
O=C(CSc1nnnn1-c1ccc2c(c1)CCC2)Nc1ccc2c(c1)OCCO2,"inconclusive [inhibitor, single point]",
COc1ccc(/C=C/C(=O)C2(O)CCCCC2)cc1OC,"inconclusive [inhibitor, single point]",
CC(C)NS(=O)(=O)c1ccc(OCC(=O)N2CCN(c3cccc(Cl)c3)CC2)cc1,active: 14.6 µM,
Cc1cc(C(=O)Nc2cc(C(F)(F)F)ccc2N2CCOCC2)no1,,inactive: -6.56%
NC(=O)[C@@H]1CCCN1C(=O)c1cc(COc2ccc3c(c2)CCCC3)on1,"inconclusive [inhibitor, single point]",
Cc1ccc(NC(=O)C2CCN(S(=O)(=O)c3c(C)noc3/C=C/c3ccco3)CC2)nc1,"inconclusive [inhibitor, single point]",
O=C(Cn1ncc2c3ccccc3n(Cc3ccccc3)c2c1=O)NCc1ccccc1,,inactive: 0.14%
CCCC(=O)O[C@]1(C(=O)COC(C)=O)CC[C@H]2[C@@H]3C[C@H](F)C4=CC(=O)C=C[C@]4(C)[C@@]3(F)[C@@H](O)C[C@@]21C,inactive and active: 23.7 µM,
